In the supplement of paper PMC11417369:
± gives the standard deviation of the averaged measurements. Some of the results follow.

Test system: PfAP2-LT AP2 domain (GST-tagged)
Experiment: gcPBM binding intensity (ln(normalized median fluorescence intensity)); higher = stronger DNA binding
Outline: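 An Agilent 4 × 180k array of primer-extended double-stranded 36-bp intergenic genomic probes, with negative controls, was incubated for 1 h with GST-tagged P. falciparum DNA-binding domains expressed in E. coli. Alexa488 anti-GST antibody detected bound protein, scanned at 488 nm. Binding intensity is the highest Masliner-normalised natural-log median intensity across replicate spots of either probe orientation.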

| Sequence | gcPBM binding intensity (ln) |
| --- | --- |
| TATATAACATATGGGACACACATGCAACTGTTATAT [CACACA_site3792] | 9.13 ± 0.34 |
| TATTTTTACAATGGTAGTACCATTTTGAATCTTTGT [XGTACX_site6092] | 8.75 ± 0.42 |
| CACCCGCACGTATTTGCACACATTGCCACGTAATTA [CACACA_site5786] | 9.51 ± 0.3 |
| TGCTTATCCATTTCTACACACAAAAAAAAAAAAAAA [CACACA_site37] | 8.65 ± 0.42 |
| TTATATTATAACAAACGTACGAATTTTATACAAATA [XGTACX_site7258] | 8.53 ± 0.43 |
| TATATATATTTATGTTGTACAAAATATTATTACGTA [XGTACX_site5384] | 8.57 ± 0.36 |
| AAATGGGTTTATTTAACACACAAAAGAAAAAATATA [CACACA_site1938] | 8.71 ± 0.51 |
| ATATATATATATATATGTACATATATACATATATGT [XGTACX_site1521] | 9.81 ± 0.33 |
| TTTTTTTTTTTTTGATGTACAATAATTAAAGAGTAA [XGTACX_site8403] | 8.18 ± 0.46 |
| AGTAGTCTGGAGAAGAGTACATAGTTTCTGGTAGCT [XGTACX_site2023] | 8.8 ± 0.35 |
| AATAACTATATATGTGTGCACAAAAATTTGACATAA | 9.3 ± 0.37 |
| AGTTTTTATTAAAACAAAATTTAATTATAACGTTGA [XGTACX_negctrl_site298] | 8.23 ± 0.59 |
| CGTAGCCCCACTAACACACACAAATATACTCAATCA [CACACA_site5587] | 9.41 ± 0.38 |
| TATATATATATATACACACATACATATATATATTTG [CACACA_site857] | 9.74 ± 0.25 |
| TTATATGTATGAACAAGTACATGCTATAATTATAAA [XGTACX_site1399] | 8.57 ± 0.46 |
| AACATATACACGAACACACACACATATATATATATA [CACACA_site502] | 10.3 ± 0.26 |
| AAAACAAATGAGTACACACACATAAAAATTGAAAAT [CACACA_site199] | 9.49 ± 0.39 |
| TAAAGAAAAAAATGTTGTACTTTATGAAACATATTT [XGTACX_site412] | 8.38 ± 0.45 |
| ATATTTACCATTGTATGTACATATATAAAATATATC [XGTACX_site3237] | 8.83 ± 0.44 |
| GTATATATATATATATGTACATATTTAGAGTTCTGT [XGTACX_site5357] | 9.38 ± 0.41 |
| GGTAGGTGGATATATACACACATATATTATAGATAT [CACACA_site7021] | 9.24 ± 0.51 |
| CACAGATATATACATACACACATATATACACATATA [CACACA_site6323] | 9.39 ± 0.32 |
| ATCGAGAAAAATAAAATAATACAATTTCTTTAAATA [XGTACX_negctrl_site162] | 8.4 ± 0.45 |

| Sequence | gcPBM binding intensity (ln) |
| --- | --- |
| ATTCCCTTAAGAAACTGTACAAAACTTTCTTCGATT [XGTACX_site775] | 8.6 ± 0.43 |
| TATACATAAATTATATGTACTGAAAATACATAATTA [XGTACX_site3626] | 8.54 ± 0.42 |
| GTGTGTGTATATATTTGTACATATATTTAAACATAT [XGTACX_site1074] | 9.44 ± 0.35 |
| CATTATAAGAAACACACACACATATATATATATATA [CACACA_site1051] | 10.2 ± 0.25 |
| AAAAAAAAAAATATATTATTTTACTTGTTTATTTTA [CACACA_negctrl_site1447] | 8.31 ± 0.56 |
| AAAAAGAAGAATATATGTACACAAAATTTATGAGTT [XGTACX_site8609] | 8.86 ± 0.54 |
| TAAACCAAACAATTATGTATAAGATGTATATATATA [GTGCAC_negctrl_site438] | 8.71 ± 0.45 |
| AAATTCTTAACCCAACGTACATATAATAAATTCTTA [XGTACX_site8538] | 8.57 ± 0.33 |
| TTTTTTTTTTCTTAGGTGCAAAAAATAAGTATATAT [GTGCAC_site9394] | 8.32 ± 0.38 |
| AAAAAAAAAAGAACCCGTACATAAATAATATATATA [XGTACX_site164] | 8.91 ± 0.45 |
| TTAATTACATGTTATTGTACGTATTTTCTATCTATC [XGTACX_site844] | 9.12 ± 0.42 |
| GAAACATAAAAATATATTGAAATAGTATCATGGGTA [CACACA_negctrl_site352] | 8.82 ± 0.48 |
| TATAGTTATATTAGAAGTACTTCATTTTAACATATT [XGTACX_site7101] | 8.62 ± 0.38 |
| AAAAAAAAAAAAGAAACACACACATTTGTATATAAT [CACACA_site8648] | 9.29 ± 0.45 |
| TAAAAAATAAAATAATGTACATATGAATTATATATT [XGTACX_site8398] | 8.69 ± 0.47 |
| TTTTTTTTGTATTAATGTACATATAACTTTTTTTTT [XGTACX_site7903] | 8.6 ± 0.51 |
| CATACAGACGAACACACACACATATAAATATAAATA [CACACA_site6443] | 9.7 ± 0.38 |
| AAATATTATATATATACACACACACCGGCATGCACA [CACACA_site7916] | 9.62 ± 0.28 |
| AACCACATGGTGTAATGTACATTACCTTAACAATAA [XGTACX_site3055] | 9.01 ± 0.52 |
| TATAATAAAATTGGTAGTACATTAATTTATGTATAG [XGTACX_site3059] | 8.55 ± 0.45 |
| TATTATTTTTTTTTTTGTACATATATGTATATATAT [XGTACX_site8471] | 8.85 ± 0.53 |
| AAAAAAATTCTTGGCGCACACACTTTAAAAATTAAA [CACACA_site597] | 8.93 ± 0.49 |
